# Over roughly 4,100 sequences, “relative CpG methylation activity (normalised to average over all NNNCGNNN flanks)” has its median near 0.94; the highest 2% begin near 1.9. The list shows a part of the results.
# Biological target: DNMT3B catalytic domain (mouse) (UniProt O88509)
# Assay: relative CpG methylation activity (normalised to average over all NNNCGNNN flanks) (relative (1 = mean)); higher = more methylation of the central CpG
# Conditions: system: in vitro, murine catalytic domain; CpG state: hemimethylated substrate pool; residues: 558-859
# Procedure: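 Deep enzymology: a pool of dsDNA substrates with a central CpG flanked by 10 random nucleotides on each side was methylated by the murine DNMT3A or DNMT3B catalytic domain (0.8 mM SAM, 37 °C, 60 min). Methylation was then read out by hairpin ligation, bisulfite conversion and NGS. Values are the average methylation of each NNNCGNNN context (±3 flanks; the outer flanks are random and averaged over), normalised to the overall mean, so 1 = average activity.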
# UniProt O88509, sequence (O88509 558-859): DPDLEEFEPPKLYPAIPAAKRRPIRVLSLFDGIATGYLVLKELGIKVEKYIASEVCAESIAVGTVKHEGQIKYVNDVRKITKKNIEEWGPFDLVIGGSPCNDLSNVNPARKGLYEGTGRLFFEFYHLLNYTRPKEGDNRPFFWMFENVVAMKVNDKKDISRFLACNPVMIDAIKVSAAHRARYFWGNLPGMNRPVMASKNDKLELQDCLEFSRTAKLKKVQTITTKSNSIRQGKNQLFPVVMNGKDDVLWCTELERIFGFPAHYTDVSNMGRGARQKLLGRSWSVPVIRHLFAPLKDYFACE
row,Sequence,relative CpG methylation activity
1,TGGCGCGT,0.532
2,ACCCGAGT,1.27
3,CCGCGTTG,0.398
4,ACTCGGGC,1.34
5,AACCGGCA,1.16
6,GAGCGTTT,0.407
7,GGGCGCAT,0.278
8,GCACGACG,1.18
9,GGGCGGGA,0.521
10,TCCCGTGG,0.0283
11,GGCCGGCT,1.11
12,TCCCGTCC,1.26
13,CCGCGCCC,0.962
14,ATACGTGA,0.906
15,CCTCGGTA,1.03
16,TGCCGAAT,0.836
17,CAGCGAGT,1.12
18,ATCCGTTT,0.735
19,CGGCGCGG,0.289
20,TGACGGTG,1.01
21,CGCCGTCA,0.269
22,GAGCGCGA,0.336
23,CATCGCCA,0.973
24,GTGCGGAC,0.92
25,CGCCGTGC,0.492

row,Sequence,relative CpG methylation activity
1,GAACGGGT,1.54
2,TCGCGTGA,0.494
3,GCTCGCGA,0.311
4,GTTCGTGG,0.265
5,ACACGCAC,1.06
6,TAACGTCC,1.38
7,ATCCGCCC,1.08
8,AGACGTAC,1.17
9,ATGCGGAG,0.568
10,GACCGGGT,1.03
11,GACCGGTC,0.988
12,ACACGGAC,1.29
13,TTTCGCAT,0.584
14,GGCCGGTC,0.895
15,AACCGTAC,0.73
16,CCCCGTTC,1.19
17,CACCGAAC,1.33
18,TGGCGTTG,0.449
19,TGGCGTAA,0.24
20,AGGCGTGA,0.289
21,AACCGATC,1.4
22,CTCCGGCC,1.94
23,TAACGGCT,1.88
24,CTACGTAC,1.62
25,CGGCGCAT,0.389

row,Sequence,relative CpG methylation activity
1,AAGCGTCC,0.891
2,ACGCGTCC,1.01
3,CTTCGCCA,1.57
4,AGGCGCAT,0.199
5,TCGCGTAT,0.515
6,GTACGCAA,0.97
7,ATTCGTCT,0.718
8,GTACGGGG,1.6
9,GTGCGGCT,1.34
10,TCTCGATT,1.38
11,TATCGGTC,1.34
12,CCTCGAAC,1.35
13,AAGCGGAA,0.312
14,CCTCGTGA,0.546
15,AACCGAAC,1.13
16,CCCCGCGC,1.05
17,GCCCGGGA,1.37
18,CACCGTTT,0.307
19,AACCGACA,0.856
20,ACACGGGA,1.44
21,AGCCGTGA,0.101
22,CAACGAAA,1.52
23,GGTCGATG,1.1
24,TAGCGTTC,0.626
25,TTTCGCGC,1.18

row,Sequence,relative CpG methylation activity
1,AGGCGGCT,0.919
2,CAACGTAC,1.36
3,CTGCGGAA,0.922
4,GTTCGTCC,0.787
5,GTACGGCT,1.56
6,GATCGGCC,1.52
7,TCACGCAG,0.781
8,ATGCGTGC,0.609
9,TGACGTTT,0.658
10,GAGCGTGA,0.365
11,TCACGACG,1.28
12,ACTCGGTT,1.23
13,TACCGCGT,0.29
14,ACTCGGGA,1.25
15,GGTCGTAG,0.202
16,TAGCGATA,1.43
17,AGGCGAAA,0.81
18,CGGCGACT,0.758
19,AAGCGAAC,1.05
20,ATTCGTGT,0.216
21,ATACGACC,1.86
22,GGGCGAAC,0.804
23,CACCGGAC,0.86
24,TACCGGGC,1.17
25,TCGCGTTT,0.521

row,Sequence,relative CpG methylation activity
1,GAACGTAA,0.809
2,GTTCGAAG,0.967
3,CATCGTTA,0.653
4,TAACGAAG,1.24
5,GCGCGAAT,0.74
6,GCACGGAG,0.69
7,AGACGTCG,0.872
8,TTCCGGTC,2.04
9,TGTCGGTC,1.29
10,TCACGTCT,1.13
11,CCTCGAAT,1.3
12,GCACGGCC,1.77
13,CCCCGCAT,0.57
14,ACGCGATG,0.919
15,TCGCGTCT,0.77
16,AGGCGGTT,0.694
17,TTACGGGG,2
18,GCTCGACC,1.25
19,GTCCGCCC,1.03
20,GGGCGGGT,0.481
21,GAACGTAT,1.09
22,ACCCGACC,1.38
23,GATCGACC,1.11
24,CCGCGTCT,0.792
25,GACCGAGT,1.31

row,Sequence,relative CpG methylation activity
1,CAACGTGT,0.579
2,TGACGCGA,0.69
3,GCACGGTA,1.26
4,GCCCGCAC,0.864
5,GTCCGAAT,1.46
6,ACTCGGAG,0.713
7,GCCCGGAC,1.05
8,ACTCGCTA,0.804
9,TATCGAAG,1.09
10,AACCGTTC,0.501
11,AGTCGAAT,1.38
12,ATACGAAC,1.89
13,CATCGAAC,1.6
14,GTACGTAT,1.14
15,ACGCGATC,1.25
16,GTCCGAAG,1.08
17,TAGCGCTC,0.768
18,CCCCGAAA,1.45
19,AATCGTCG,0.465
20,ACACGCCT,1.47
21,GGCCGAGC,1.53
22,CCCCGAGA,1.68
23,TTACGGTG,1.52
24,CTTCGCGG,1.18
25,GCCCGACA,1.39

row,Sequence,relative CpG methylation activity
1,AACCGATG,0.997
2,ACTCGTAC,1.09
3,GCGCGCCG,0.924
4,CCCCGATA,1.57
5,ATCCGATC,1.48
6,ATCCGCCA,0.876
7,CGCCGTTA,0.216
8,CGTCGTCT,0.592
9,CAGCGCCC,1.01
10,GTCCGCAG,0.521
11,CTCCGTTC,1.22
12,GAACGAAG,1.23
13,ATCCGCGG,0.648
14,CTTCGCAG,0.611
15,AATCGAGT,1.64
16,TTTCGTGG,0.36
17,GATCGCAC,0.67
18,TTGCGGCG,1.66
19,CGCCGGGT,0.899
20,CGTCGATA,1.84
21,CGCCGGAG,0.167
22,CTTCGGTC,1.47
23,GGCCGTTG,0.0342
24,TCACGCTG,1.17
25,ACGCGTTG,0.312

row,Sequence,relative CpG methylation activity
1,ATCCGGCT,1.8
2,TAACGATC,1.83
3,CATCGACC,1.6
4,GCACGTTA,0.752
5,CGTCGTAA,0.361
6,GTTCGGTG,1.46
7,CGACGTTG,0.363
8,CAGCGTCG,0.906
9,ACACGAAG,1.24
10,GAACGCTT,1.15
11,ATACGAGG,1.72
12,AGCCGCGA,0.139
13,GGACGATA,1.24
14,CGTCGCGC,0.747
15,ACTCGCCG,0.707
16,TAGCGGCG,0.863
17,ACCCGGGT,1.29
18,TAACGGAA,1.18
19,AAACGCCC,1.42
20,TCTCGGGA,1.11
21,TGTCGGGG,1.21
22,TAGCGGCT,1.24
23,TGACGCCT,1.11
24,CGCCGCGC,0.355
25,TATCGCAA,0.42

row,Sequence,relative CpG methylation activity
1,GCGCGCCA,0.631
2,CCTCGCAA,0.594
3,ACTCGATC,1.62
4,ACTCGGGT,1.11
5,CTCCGGAG,1.54
6,GAACGAGG,1.03
7,AGCCGCTC,0.441
8,TAGCGGTC,1.12
9,AGCCGCTG,0.34
10,ACCCGTGA,0.269
11,ATTCGACT,1.43
12,TTGCGATA,1.44
13,ACTCGAGC,1.74
14,TAGCGTTA,0.445
15,GATCGCCT,0.763
16,CCCCGAAC,1.48
17,TGTCGCCC,0.734
18,ACACGGGG,1.39
19,GGACGACA,0.966

# Source: the supplement of paper PMC7335073
